Data on twelve molecules can be found in the supplement of paper PMC9174493.

The other results are listed elsewhere or left out. Single values of this set are uncertain. Values with irradiation are relative to irradiated vehicle.

For this assay, the system named is A549-Dual. Description: ISRE reporter (Lucia luciferase) activity, viability-corrected, relative to vehicle (fold change vs vehicle); higher = more activation of STING-IRF / NF-kB immune response reporter. As to conditions: 10 µM; irradiation: none.
Turning to `CC(Cc1ccc(O)cc1)NCC(O)c1cc(O)cc(O)c1` (configuration not stated) [Fenoterol], the ISRE reporter is 0.787.

In the case of `CNCC(=O)c1ccc(O)c(O)c1.Cl` [Adrenalone HCl], the ISRE reporter was 0.626.

In the case of `CN1c2ccccc2C(NCCCCCCC(=O)[O-])c2ccc(Cl)cc2S1(=O)=O.[Na+]` (configuration not stated) [Tianeptine sodium], the ISRE reporter turned out to be 0.71.

Take `CCCC[N+]1(C)C2CC(OC(=O)C(CO)c3ccccc3)CC1C1OC12.[Br-]` (configuration not stated) [Butylscopolamine Bromide]: the ISRE reporter stood at 0.858.

Consider `COc1ccc(OC)c(C(O)C(C)N)c1.Cl` (configuration not stated) [Methoxamine HCl], for which the ISRE reporter came to 0.529.

`COC12CC(COC(=O)c3cncc(Br)c3)CN(C)C1Cc1cn(C)c3cccc2c13` (configuration not stated) [Nicergoline] returned an ISRE reporter of 0.647.

Turning to `O=c1[nH]c2ccccc2n1C1CCN(CCCC(c2ccc(F)cc2)c2ccc(F)cc2)CC1` [Pimozide], the ISRE reporter is 0.738.

`CC(C)CC1C(=O)N2CCCC2C2(O)OC(NC(=O)C3C=C4c5cccc6[nH]c(Br)c(c56)CC4N(C)C3)(C(C)C)C(=O)N12.CS(=O)(=O)O` (configuration not stated) [Bromocriptine Mesylate] came in with an ISRE reporter of 1.3.

Turning to `COc1ccc2[nH]cc(CCN)c2c1` [5-Methoxytryptamine], the ISRE reporter was 0.745.

As to `CCC1(C)CC(=O)NC(=O)C1` [Bemegride], the ISRE reporter turned out to be 0.803.

In the case of `COc1cccc2c1cc([N+](=O)[O-])c1c(C(=O)O)cc3c(c12)OCO3` [Aristolochic acid A], the ISRE reporter worked out at 0.621.

As to `CCCN1CC(CSC)CC2c3cccc4[nH]cc(c34)CC21.CS(=O)(=O)O` (configuration not stated) [Pergolide Mesylate], the ISRE reporter stood at 1.21.
